Each structure is given as a SMILES string. Hit rate of the full screen: of about 310,000 compounds, about 14,000 (4.5%) showed an effect of 50% or more. The effect is printed as a negative number. The list shows a part of the results.
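Note: peak tail current of the secondary pulse compared with the same well before compound.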

human ether-à-go-go-related gene (hERG) potassium channel, sequence (Q12809 whole entry, looked up): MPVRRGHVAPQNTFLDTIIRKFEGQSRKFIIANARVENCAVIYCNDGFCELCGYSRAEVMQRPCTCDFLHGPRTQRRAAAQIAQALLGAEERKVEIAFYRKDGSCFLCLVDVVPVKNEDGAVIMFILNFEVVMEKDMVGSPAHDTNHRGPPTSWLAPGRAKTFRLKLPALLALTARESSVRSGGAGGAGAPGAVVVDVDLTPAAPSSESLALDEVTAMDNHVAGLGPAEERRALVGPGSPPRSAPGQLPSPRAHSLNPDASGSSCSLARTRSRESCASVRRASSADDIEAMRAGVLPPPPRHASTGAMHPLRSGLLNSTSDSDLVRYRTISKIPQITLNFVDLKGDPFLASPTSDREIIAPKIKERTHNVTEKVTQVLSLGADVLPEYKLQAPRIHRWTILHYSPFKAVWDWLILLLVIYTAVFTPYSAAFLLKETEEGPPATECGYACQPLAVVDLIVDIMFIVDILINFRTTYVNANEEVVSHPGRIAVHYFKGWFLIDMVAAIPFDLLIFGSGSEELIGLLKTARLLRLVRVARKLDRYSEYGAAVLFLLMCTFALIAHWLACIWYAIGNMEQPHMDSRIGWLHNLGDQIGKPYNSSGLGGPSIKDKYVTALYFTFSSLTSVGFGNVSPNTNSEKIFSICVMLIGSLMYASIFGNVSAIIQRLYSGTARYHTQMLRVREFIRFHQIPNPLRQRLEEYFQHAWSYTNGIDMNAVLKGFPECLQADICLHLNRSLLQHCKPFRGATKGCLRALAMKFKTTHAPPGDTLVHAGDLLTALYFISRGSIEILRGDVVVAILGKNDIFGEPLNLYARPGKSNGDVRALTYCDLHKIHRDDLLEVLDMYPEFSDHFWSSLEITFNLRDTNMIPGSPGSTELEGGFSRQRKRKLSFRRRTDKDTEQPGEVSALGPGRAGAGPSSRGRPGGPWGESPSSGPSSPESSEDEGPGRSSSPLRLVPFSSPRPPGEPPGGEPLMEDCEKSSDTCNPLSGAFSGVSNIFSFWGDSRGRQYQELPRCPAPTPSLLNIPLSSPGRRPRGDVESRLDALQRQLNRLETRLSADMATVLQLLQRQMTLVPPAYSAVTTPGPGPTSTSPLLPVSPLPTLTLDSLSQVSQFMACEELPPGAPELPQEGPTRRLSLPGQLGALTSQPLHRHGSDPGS

The assay concerns the target human ether-à-go-go-related gene (hERG) potassium channel (human, UniProt Q12809). Description: primary screen, population patch clamp on CHO cells stably expressing hERG.
For the molecule `CC(C)(C)c1cc(NC(=O)c2c(F)cccc2Cl)n(-c2ccccc2)n1`, the “hERG current change (%, negative = inhibition) at 10uM” value is given as -37.5%.

For `CC(=O)c1cccc(N(C(=O)c2ccco2)C(C(=O)NC2CCCC2)c2ccc(N3CCOCC3)cc2)c1` (stereo not shown), the “hERG current change (%, negative = inhibition) at 10uM” value is reported as 8.31%. The value for `Cc1occc1C(=O)NNC(=O)c1ccccc1C(=O)O` was 6.98%; that for `Cc1ccccc1N1C(N)=NC(N)=NC1(C)C.Cl` was -1.79%. The same measure for `c1coc(CNc2c3c(nc4ccccc24)CCC3)c1`: -78.7%. Regarding `Cc1ccc(S(=O)(=O)NNC(=O)C(O)(c2ccccc2)c2ccccc2)cc1`, the “hERG current change (%, negative = inhibition) at 10uM” value is reported as 1.02%. The value for `CC1CCN(C(=O)CCCOc2cc(=O)n(C)c3ccccc23)CC1` was -20.7%; that for `O=C(CCC(=O)N(CC(=O)NC1CCCCC1)c1ccc(F)cc1)Nc1nccs1` was -73.7%. Turning to `COc1ccc(-c2cc(C(=O)Nc3cccnc3)no2)cc1OC`, the “hERG current change (%, negative = inhibition) at 10uM” value stood at 24.8%. The value for `CCOC(=O)c1[nH]c(C)c(C(=O)Nc2ccc(Cl)cc2)c1C` was 2.31%. Take `CC(=O)c1ccc(NC(=O)CN2C(=O)NC(C)(C3CCCCC3)C2=O)cc1` (stereo not shown): the “hERG current change (%, negative = inhibition) at 10uM” value was -3.52%.

As for `Cc1nc(C)n(CC(C)C(=O)N2CCN(S(=O)(=O)c3ccc(Cl)cc3)CC2)n1` (stereo not shown), the “hERG current change (%, negative = inhibition) at 10uM” value was -45.9%. The same measure for `Cc1cnc(C(=O)Nc2ccc(N3CCCCC3)cc2)cn1`: 3.81%.

As for `COc1ccccc1N1CCN(C(=O)CN2C(=O)c3ccccc3C2=O)CC1`, the “hERG current change (%, negative = inhibition) at 10uM” value was found to be 11.9%. The same measure for `COc1cccc(C(=O)/C=C/c2ccc(OCC#N)c(OC)c2)c1`: -21.8%; for `CSc1nnc(C(C)(C)C)c(=O)n1/N=C/c1c(O)ccc2ccccc12`: 9.57%; for `CC1CC(=O)Nc2ccccc2N1C(=O)COc1cc(Cl)ccc1Cl` (stereo not shown): -1.31%. The same measure for `OC(c1nc2ccccc2[nH]1)C(O)C(O)C(O)c1nc2ccccc2[nH]1` (stereo not shown): 10.5%. The same measure for `Cc1cc(C)n2nc(CC(=O)NC3CCCCCCC3)nc2n1`: -70.9%. `CN(C)S(=O)(=O)c1cccc(NC(=S)NC(=O)C2CCCCC2)c1`: the “hERG current change (%, negative = inhibition) at 10uM” value is listed as -10.6%. The same measure for `Cc1ccc(C)c(N2CN(Cc3ccco3)CNC2=S)c1`: 3%; for `O=C(CN1C(=O)c2ccccc2S1(=O)=O)NCCSCc1ccccc1Cl`: -4.19%; for `Cc1ccccc1OCC(=O)N/N=C/c1cccc2cccnc12`: -1.48%. For the molecule `O=C1CC(c2cccnc2)c2cc3c(cc2N1)OCO3` (stereo not shown), the “hERG current change (%, negative = inhibition) at 10uM” value was 44%.

Regarding `Cc1cc(C)cc(NC(=O)c2c(C)nc3ccccn23)c1`, the “hERG current change (%, negative = inhibition) at 10uM” value was 8.9%.

The values above are taken from paper PMC4336329 (PLoS ONE, 2015).
